In PubChem BioAssay AID488969 (Vanderbilt High Throughput Screening Facility, 2010):
Over roughly 110,000 compounds, “z-score” has its median near -0.1; the highest 2% begin near 2. Some of the results follow. The source made the active and inactive calls.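 Rule for the calls: active = z-score in the third read window above 3 or below -3; inactive = the rest.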

target: Metabotropic glutamate receptor 8 (Rattus norvegicus) (UniProt P70579); assay: mGluR8 Gi/Go-coupled signaling modulation – cell-based, rat, thallium flux, HTS, primary screen (AID 488969); details: HEK293 rat mGluR8, GIRK (G protein-gated inwardly rectifying potassium channel) thallium flux, FluoZin2; at 10 µM; stronger effect = higher value; submaximal glutamate (EC20) added with thallium
Chain of UniProt P70579 (P70579 whole entry, looked up): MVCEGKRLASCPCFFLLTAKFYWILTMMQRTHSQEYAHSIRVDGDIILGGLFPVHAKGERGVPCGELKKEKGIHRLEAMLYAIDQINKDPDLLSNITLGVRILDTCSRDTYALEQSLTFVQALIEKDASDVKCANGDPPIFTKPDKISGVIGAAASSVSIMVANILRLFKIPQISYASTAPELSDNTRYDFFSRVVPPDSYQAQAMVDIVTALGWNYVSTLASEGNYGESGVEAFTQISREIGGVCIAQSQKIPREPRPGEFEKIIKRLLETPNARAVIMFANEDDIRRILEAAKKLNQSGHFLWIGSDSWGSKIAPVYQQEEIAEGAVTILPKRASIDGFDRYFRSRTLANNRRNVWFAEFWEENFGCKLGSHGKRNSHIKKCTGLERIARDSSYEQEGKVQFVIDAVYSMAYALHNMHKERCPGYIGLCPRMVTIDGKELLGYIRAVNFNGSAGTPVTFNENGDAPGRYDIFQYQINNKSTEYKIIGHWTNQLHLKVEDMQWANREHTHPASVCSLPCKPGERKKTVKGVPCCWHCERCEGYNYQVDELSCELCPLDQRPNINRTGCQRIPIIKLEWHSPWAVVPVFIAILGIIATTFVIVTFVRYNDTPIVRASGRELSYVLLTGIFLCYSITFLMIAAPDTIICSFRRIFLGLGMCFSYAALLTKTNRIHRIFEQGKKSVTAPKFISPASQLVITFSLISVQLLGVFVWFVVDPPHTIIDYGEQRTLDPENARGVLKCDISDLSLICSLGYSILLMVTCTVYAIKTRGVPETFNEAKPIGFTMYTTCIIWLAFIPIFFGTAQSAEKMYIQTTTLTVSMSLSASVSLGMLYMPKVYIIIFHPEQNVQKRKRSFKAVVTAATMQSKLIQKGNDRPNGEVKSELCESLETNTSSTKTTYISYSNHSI

| Compound | z-score |
| --- | --- |
| CCOc1ccc(C(=O)NC(=S)NC2CCCC2)cc1[N+](=O)[O-] | 0.688 |
| COc1ccc(CCN2CC(C(=O)O)CC2=O)cc1OC (stereo not given) | -0.156 |
| CCCCOc1ccc(C(C)NC(=O)CCS(=O)(=O)Cc2ccc(C)cc2)cc1 (stereo not given) | -0.144 |
| Cc1[nH]c2ccc(-c3n[nH]c(=S)n3Cc3ccccc3)cc2c1C | -0.413 |
| CN1CCN(C(=O)c2ccc(-n3cccc3)cc2)CC1 | 0.268 |
| CC(C)OCCCNC(=O)c1cccc(NC(=O)c2ccccc2)c1 | 2.99 |
| CCn1nnnc1SCC(=O)N(C1CCCCC1)C1CCCCC1 | -0.262 |
| Cc1ccc(-n2nc(C)cc2NC(=O)c2ccc(C)s2)cc1 | -0.352 |
| Cn1c(=O)oc2cc(S(=O)(=O)N3CCC(C(=O)NCC4COc5ccccc5O4)CC3)ccc21 (stereo not given) | -0.644 |
| CCCCNC(=O)Nc1ccccc1C(=O)NCCC | 0.0978 |
| Cc1cccc(NC(=O)COc2ccc(Br)cc2C)n1 | -0.25 |
| Cc1cccc(-c2n[nH]c(=S)n2/N=C/c2ccc(C)o2)c1 | 0.433 |
| O=C(COc1cccc(-n2cnnn2)c1)Nc1ccccc1 | 0.099 |
| CCOc1cccc(OCCCCN2CCOCC2)c1 | -0.982 |
| CC12C=CC3(O1)C(C(=O)N(c1cccnc1)C3C(=O)NC1CCCCC1)C2C(=O)Nc1ccccc1 (stereo not given) | -0.319 |
| COCCSc1ccccc1C(=O)N1CCN(Cc2ccc3c(c2)OCO3)CC1 | 0.12 |
| CC1=C(C(=O)c2ccccc2)C(c2cn(-c3ccccc3)nc2-c2ccc(Cl)cc2)NC(=S)N1 (stereo not given) | 0.0488 |
| O=C(Oc1cccnc1)c1cc(S(=O)(=O)N2CCOCC2)ccc1Cl | -0.361 |
| O=C(NC(Cc1c[nH]c2ccccc12)c1nnc2n1CCCCC2)c1ccc(Cl)cc1 (stereo not given) | -1.47 |
| O=C(c1ccccc1)N1CCN(Cc2ccccc2Br)CC1 | 0.504 |
| COc1ccc(C(=O)NNC(=O)C(NC(=O)c2ccccc2NC(=O)c2ccco2)C(C)C)cc1 (stereo not given) | -0.156 |
| N#C/C(=C\c1c(N2CCCCC2)nc2ccccn2c1=O)C(=O)NC1CCS(=O)(=O)C1 (stereo not given) | -0.276 |
| COc1ccc(CCNC(=O)c2cnc3scc(C)n3c2=O)cc1OC | 0.302 |
| COc1ccccc1NS(=O)(=O)c1ccc(OC)c(OC)c1 | -0.0629 |

| Compound | z-score |
| --- | --- |
| CCOc1ccc(NC(=O)CSCC(=O)O)cc1 | -0.178 |
| O=C(Nc1cccc([N+](=O)[O-])c1)c1[nH]ncc1Cl | -0.106 |
| COc1cc(CNCCO)ccc1OCC(=O)Nc1ccc(Br)cc1 | 1.47 |
| CC(C)NCc1c(O)c(Br)cc2oc3c(c12)CCCC3 | -2.03 |
| Cc1ccc(N=C/C(C(=O)C(F)(F)F)=C(\O)c2cccs2)cc1 | -0.28 |
| C=CCn1c(SCc2cccc(C#N)c2)nnc1-c1ccccc1O | 0.378 |
| O=C(CCc1ccc(S(=O)(=O)N2CCOCC2)cc1)Nc1ccc2ccccc2c1 | -0.0429 |
| O=C(Cc1ccc(Br)cc1)N1CCCCCC1 | 0.133 |
| O=C1c2ccccc2CCC12N=NCC2c1ccccc1 (stereo not given) | -0.0723 |
| C=CCn1c(SCC(=O)c2cc(C)n(CC3CCCO3)c2C)nnc1-c1ccccc1 (stereo not given) | -0.292 |
| CC1(c2ccncc2)Nc2ccccc2-c2nc3ccccc3n21 (stereo not given) | -0.0156 |
| CC1CCCN(S(=O)(=O)c2coc(C(N)=O)c2)C1 (stereo not given) | 0.247 |
| CC(/C=C/c1ccccc1)=N/NC(=O)c1cc([N+](=O)[O-])cc([N+](=O)[O-])c1 | 1.41 |
| CCOC(=O)c1cnc(-n2nc(C)cc2C)nc1Nc1ccc(OC)cc1 | -0.0946 |
| CSCCC(C(=O)N1CC2(C)CC1CC(C)(C)C2)N1C(=O)c2ccccc2C1=O (stereo not given) | -0.567 |
| O=C1c2ccccc2NC(c2cn[nH]c2-c2ccccc2)N1O (stereo not given) | -0.0761 |
| Cc1ccc(-c2nc(N)s[n+]2-c2ccccc2)cc1 | -0.115 |
| CCOc1cc(C2CC(=O)NC3=C2C(=O)C(C(=O)OC)C(C)C3)cc(Br)c1O (stereo not given) | 0.919 |
| CCc1nc(SCC(=O)Nc2nnc(CC)s2)c2c(C)c(C)sc2n1 | active: 8.71 |
| O=C(NCC1CCCO1)c1cccc(NC(=O)c2ccco2)c1 (stereo not given) | 0.651 |
| O=C(NCc1ccco1)C(C(=O)c1ccc(F)cc1)n1ccccc1=O (stereo not given) | -0.255 |
| COc1ccc(C2CC(C(F)(F)F)n3ncc(C(=O)Nc4cccc(O)c4)c3N2)cc1OC (stereo not given) | 0.161 |
| COc1ccc(C(=O)N2CCN(C(=O)CC(C)C)CC2)cc1OC | -0.432 |
| Nc1nonc1NC(=O)CSc1ncccc1C(=O)O | -0.104 |

| Compound | z-score |
| --- | --- |
| O=C(CCCC(=O)N(c1ccc2c(c1)OCCO2)C(C(=O)NC1CCCCC1)c1ccc(Cl)cc1)Nc1ccccn1 (stereo not given) | -1.41 |
| CCN(Cc1ccccc1)Cc1c(C)[nH]c2c(C)c(C)ccc2c1=O | -0.4 |
| CCOC(=O)C1=C(C)NC2=C(C(=O)C(C(=O)OCC)C(c3cccc(OC)c3)C2)C1c1ccccn1 (stereo not given) | active: -3.81 |
| COc1c[nH]n(C2CCCCC2)c(=O)c1=O | -0.0425 |
| CCOc1cc(C(=O)OCc2ccc(C(=O)OC)o2)cc(Br)c1OC | 1.86 |
| Cc1noc(-c2ccccc2OC(=O)c2ccccc2)n1 | -1 |
| COc1cccc(OCC(O)CN2C(C)CCCC2C)c1 (stereo not given) | 0.438 |
| Cc1ccc(-c2nc(SCC(N)=O)c(C#N)c3c2CCCC3)cc1 | -0.427 |
| Cc1nc(C(=O)Nc2ccccc2Cl)cc2c1[nH]c1ccccc12 | -0.494 |
| Cc1ccc(C(=O)N2CCN(C(=O)N3CCOCC3)CC2)cc1 | -0.213 |
| Cc1cc(C)nc(NC2=NCC(=O)N2c2ccc(Cl)cc2)n1 | 0.381 |
| CC1=C(C(=O)N2CCOCC2)C(c2ccccc2F)C2=C(CCCC2=O)N1 (stereo not given) | -0.0832 |
| O=C(CSCC(=O)NC1CC1)Nc1ccccc1 | 0.615 |
| O=C(CNC(=O)c1ccco1)OCC(=O)c1cccc2ccccc12 | 1.54 |
| c1cncc(-c2noc(-c3cccc4ccccc34)n2)c1 | 0.429 |
| O=C(/C=C/c1ccc(S(=O)(=O)N2CCOCC2)cc1)NC(=S)Nc1ccc(N2CCOCC2)cc1 | -0.176 |
| COC(=O)c1ccc(C(=O)OC)c(NC(=O)CSCc2ccc(Br)cc2)c1 | 0.742 |
| COC(=O)C1(O)CC(C(C)C)=NN1C(=O)c1ccc(Cl)cc1 (stereo not given) | 0.417 |
| CCC1(C)Cc2c(sc3c2c(=O)n(C)c2nnc(SCC(=O)c4ccc(Cl)cc4)n32)CO1 (stereo not given) | 0.0466 |
| N#CC1=C(N)N(c2ccc(F)cc2)C(=O)C1 | -0.105 |
| CN(C)S(=O)(=O)c1ccc(Oc2ccccc2)cc1 | -0.0436 |
| N#Cc1nc(-c2ccccc2F)oc1NC1CCCCC1 | 0.183 |
